Test results reported in the supplement of paper PMC10681739.
In all, about 2,700 sequences were measured (“arbitrary fluorescence units”: median about 4,100, highest 2% from about 54,000 on). This is one part of the list.

What follows are sequences tested against T1, ETS1 (UniProt P14921) (assay: ETS1 binding intensity (PBM fluorescence) (arbitrary fluorescence units); higher = stronger binding). Conditions: ETS1 concentration 10 nM.
T1 sequence: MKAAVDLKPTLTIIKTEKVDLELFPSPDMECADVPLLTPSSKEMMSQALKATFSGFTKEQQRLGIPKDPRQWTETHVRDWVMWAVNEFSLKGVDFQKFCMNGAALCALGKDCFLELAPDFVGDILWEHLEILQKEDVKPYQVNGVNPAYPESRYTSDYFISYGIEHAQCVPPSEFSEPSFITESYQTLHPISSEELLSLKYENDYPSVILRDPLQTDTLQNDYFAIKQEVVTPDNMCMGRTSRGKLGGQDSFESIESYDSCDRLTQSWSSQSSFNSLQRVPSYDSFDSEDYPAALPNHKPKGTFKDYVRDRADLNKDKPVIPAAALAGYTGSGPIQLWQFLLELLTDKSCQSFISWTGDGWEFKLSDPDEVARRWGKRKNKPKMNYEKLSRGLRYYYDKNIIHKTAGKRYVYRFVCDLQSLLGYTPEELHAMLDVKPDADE
Method: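 gcPBM on wild-type 36-bp genomic probes with two neighbouring ETS1 sites (4-24 bp apart). Recombinant human ETS1 (10 nM) was detected with anti-ETS1 antibody fluorescence. Values are medians over 3 replicate spots. The probes sit in constant array flanks that are not printed.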

Sequence	ETS1 binding intensity
GCCCTGGCATTCCGGGTCTGTTCTTTCCGCTCTTCG	296
CAACTTGTCGGAGCGGAACTTCCGGCGTCCTCCCTG	22800
AATGCACTCATTTCCTGCTCCCGGATGAGCATCAGC	20600
GGACCCTGGCCGCTTCCGTTTCCTCAGATACCTACT	10900
CATGACTGGGGAAATGCATGAAAAGGAAATGATGCA	192
GCAGAAGGGGCATCCGGGCAGCTTCCTGGTGCACAT	9490
AGAAAGGGTTTTTCCTGCCACAGGATATAACTTTTT	2070
GACTTCATCTACTTCCTGAGTTTCCTTGTGACATTT	11500
CAGCCCGGCCGGATTTGCACTCGGAAGCTGCCGCGG	248
GCGTTCGCCTGCAGGAAGCGGAAGTAAAAGGGCGGC	5870
GCCATACACATCCGCGGGAACGCTTCCTCCACCAGC	2500
CGCAGAACGTTTCCCTGCAATGCTTCCTCCTGCCGC	252
AGGGTAACATGGCGGATGCGGAAGGTAAGGGCTGCA	447
CCCACCTGCTTTCTTCCTGCTTCCTGTGGGTTGCAC	5170
GCCGCGCTTCCGCGATGCGCGGCCCTTCCGCCGGCT	9280
GCACCTACACCTTCCTGCACCTTCCGCTGCAGAACA	1950
AATACACAGGAAACTACATCTCCCAGGAAGCACCGC	3980
ATGAACTTCCTGCATAGTCAGAGACAGGAATGACGA	24800
GCCGTTCACCACTTCCTGTCTTCCTGCGACCCAGTG	43900
GACTCCATTTCCCAGCGTGCCTCAGGAAGGGCGCCA	189
GTTAGGTTAAGGAAGCTTGCCATTTCCCTTTTCAGA	439
CTGCCCCGGATGTGCCCCCTGCCCCGGATGTGTCCC	9170
AACTCAGGAAACCACAGGTGCTGGAGAGGATGTGGA	336
CGGCTATGGCAGCGGAAGCCGGAAGCGGCGAGCGGG	5440
ATCTCATAGCTTCCGCTGAGACATCCTGTCTCAGGG	12200

Sequence	ETS1 binding intensity
CTTTCTTAGACAGGAAGCAAAGGAAACTGGGACAAG	4830
CGCAGCCTCGGCCGGAAACGGAAACGACGCGAACCG	8430
TATGTTTCCGGAGGGGTAACGGCGGTGAGGAAATCA	16200
CGGCAGGGGAAATGAAGGAGATGACGGGAAATGATA	343
TATTTACAACACAGGAAACAGGATGCCCTTGTCCTC	2110
CATAACAGGAAATTAGAAACTTAACTTCCCTATTCA	8390
CGAGCGGGCAGGAAGCCCAGCGTTCCGGGTTCCAGG	1180
GGCGACCGGAAGGTCCTGGCCGCCTTTCCGGTCTCC	11100
TCCCACTTCCTCCTGCCCTGCTGAGTTTCCTGGGCC	25100
GCAGAAGCAGGAAGACAGCTGGCCGGAAGACAGGTA	1740
CTGTGGCCGATTTCCTTTCATTTCCCCGCCCCTCAC	4630
GCCTTTAAGGATGTAAGCACCACCTTCCTGTCTCCT	919
GAGAACAACAGGAAATGAGCCCGGAACGCAGGCCCC	13800
ATGGGCTGGGCAGGAAGGAGCGGAACAATGAAAGAT	752
AGTTAATGACAGGATGTCATGGGAAGTAGGGGCTGG	3810
CTTCCACATCTTCCTGCAGAGCATCCTGTCTGTGCA	4230
TAAAACATCAGAACTTCCTTCCTGTATGAGTGTACA	5420
GTAGGTACAGCCAGGAAAAGGATGTTGTCTGATTGT	231
CAAGCGATTCTTCCGCCTCAACTTCCTGAGTAGCTG	5800
GAAGGTGCTTAGGAAACCCTGCTTCCTTTTGTCTCT	279
TTGACAGGATGTGTTTAGAGGAGAGATTTCCGTAGC	2900
GACAAACACATCCTGAAATAACAGGAAATGAACTAT	6800
TGGGAGGAAGGTGCGAGCCAGACCCACATCCTCTCT	193
ACCCCAACACTTCCCCAGTCAATTTCCTGTGTTAGG	4950
CGCCGGGAAGCCCACAGCATCTGATAATATCCGGGC	305

Sequence	ETS1 binding intensity
TCCCTGGGAAGTTTGCGGGCAGCCCCATCCTGTGTC	183
GCCCAGGAAACGTGGCGGCCCCGCAGCCGGAAGCGC	1780
CCGCGCCTCCAGCGGAAGCCGGAAGCAAAAGCGGGT	5670
TAGCGCTCCGCTTCCGCTGGCTTCCGCACCCGGGCC	12300
AGTATGTAATTTCCTCACGGCATTTCCGACATATTT	2500
CCCACATCCTGCACTCGTGATAAACAGTTTCCTGTT	19000
CCCAAGCCTGTTTCCTGCTCTGGGAAATGAGCTGAC	12800
CCCCGGCGACGGAAGCAGCGGCGGAACGCGAGCCTC	857
GACCCTTCCGTCCCCTGCAGCGCCTGCTTCCTGGAC	7950
GACAACAGGAAGCGTTCCAACTGCCGGAAAAGACGC	9640
GAGAGGCATCCGGGCGAGGAGCTGCGGATGGGGGCG	6210
AGGGCTACGGAAGTTGCTCTGTGGTTTCCGGCACTG	3790
GAGTCATTTCCTGTGCTATCAGCTCCGGAAGCAGAG	48200
GCGGTCCGGCCGGAAGTCACCGGAAGAGGCCGGTGT	25500
ACCCACTTACATCCTCGGAATAGGAAATAGATTAGT	577
GAGGAGGAAATCGCTGCTCTCCGCTCCTTCCTGTAG	1340
CTGACTCCCATCCTGGCAAGAGGCTTCCGGAGTGTT	1390
GTGGTTTCCTGGGTATGCCAGAACCACAGGATGCAA	10500
GTACCCCGGAAGCAGTCGCTGCAACTTCCGGGAGGT	13500
GAGCGGAAGGGGGCCGCCGGGCACGCCGGGAAGTGT	764
GGGAATACATCCTCTTACAGGCCAGGATATGACTCA	6690
TTTTTCTTCCGTCTGAGTTCAGCAAACTTCCTGCTT	3220
GGGCACTTCCGGGGCCGGCGCCCAGAGTTCCGGGAG	46800
CTTGCTTCCTCAGGTGTCATCTCCAGCTTCCGCTTG	2610
GGCGTGGTCTTCCGTGGGAGAGAAGGAAATTCTTTG	234

Sequence	ETS1 binding intensity
CAGCATTTCCTGAAGTCAAGCGCTCAGGAAATGGTT	12200
GTGCTACAGGGGAAGTGAAGAAAGGAAGCACCTGGC	495
TGGCACATACATCGGAAACAGGAAAAAATGTGAAAA	298
TGTACATTTCCTGTCTCAGATCTGTTTCCTTTTAGT	40000
GTCTTTGAAAGGGCTTCCTTCCTGTTGTCTGGACCC	3470
GGAACAAGCAGGAAGTAGAAGAGGAAATGAGATGTG	10200
TGAGTCAGTTTGCTTCCTGGGGAAGTGACAGGGAGC	1070
TGTCCATTTCCCACCCTAAAGAGAACATCCTGCATA	1660
CCACGGAGCAGGAAGTGGCACCGGAAGCAGAGGGCA	17100
TTTTGACGTTTCCTATTGTTGCCGGAAGTGACGTTA	8580
TAGCTGTTGGGGTTTCCGTTTCCTGGGCGTCTCAGC	4820
GTCACGACCCTTCCTGGTCTCTCTTCCTGCAGGATG	1430
ATTAAACTGCCTTCCTGTTTCAGGAAGCTGGGCCCA	5600
CTGATAGGGGAAGTGGGAGTTGACAGGATGGTTTAA	424
AGACAGGAAGTGGAACCGCTAATTCCGGTGCGGTGG	12400
AGAGGCGGAAATACAAAGAAAAGAACGGATGAGAGA	5200
CGGCCGGAACACAAAAAGGAGAAGCCCGGATGTTTG	496
GCCAGGGAAGGCTTCCTGGAGGAAGTGACACATAAG	2940
TTGTGCAGGAAGTTGGGTTTATCACTTCCTCACAGT	5870
GGAGCGGAGCCACATCCCACATCCTGGCGGGCCCTC	2330
TGGCACATCCGGCAACACTGCCTCGCCTTCCTGCCT	35200
CAACAGGAAATTTCAAAACCAGAACAAAGGAAATGC	2850
CGAGCCGGAAGCTCCGACTGCGGCGGCATCCGGGAC	9580
AGCAAGGGAAGTGATGTGTGGCCTCCGGAAGGACGC	518
TTTTGCTCTTCCTGCCATGTGCATTTCCGGCTTGCA	16100

Sequence	ETS1 binding intensity
TTTAGTAGAGAGGATGTCAACTTCCCTGTTTGGGTC	550
AGGCTCTGTCTCACTTCCTTCCGGTGTTGCTTAGCT	17000
CACGTCGGAGCCACATCCTTTCCTGTCCCCGTGACA	5100
ACTGGGACAGGATGGGGAGGGGCAGGAAGCCAGACA	1260
CTGGGCCCTTCCTGCCAGGTTGCACTTCCTGATAGC	8540
TAACTAGATAACTTCCCCACATCCTGTTGTTTACTA	5940
TCTACAGGAAGAGCATTCCCAGTGGAGGAAATGGCA	1730
TACACCAGTTTCCTTTGAGCCCACATCCTTTCTCGT	2360
TCCATTTCCTTTGACCTTGGGGACCCAGGAAGGTGC	11800
CGCGCCGCCTCCGGGAAGCCTTCCGGCCTTCTCCCT	2500
GTTTGCTGGCTTCCGCCCCTCCAGGAAAAAAAATCA	12500
GAATGGGGGAGCCGGAAGCAGGAAGTGAGTTTGCGA	13600
AGCTGGCCCGGAAGTGGCTTGCAGGAAGGAGTTGAG	17100
TGTTTTGGCGGAAGGACCACAGAGGAAGTCCTTGTC	1370
TCGGATAACAACTTCCGCTCGGGAAGTTTGTAAAAG	28900
CTTAATACTTCCTCTGCCTGGCTCCTTCCTGGCCCG	6950
GCCACCAGGCGGAAGTGCGTACCGGAAGTGCCGGCG	18100
GTCAGTTCCGGACCGGTCCGCGGACTCTTCCGGCGC	12600
CCCGGTCGGGGCGGAACGACATCCGGTAACGCCCCT	17800
TTGAGTGATCTTCCTGCCTCGGCTTCCTGTGTAGCT	4950
CCACTTATCATCCTGAAAATCAGAGGAAGCATCAAG	171
AATAATATTTCCTCCCCTCAGCCAGGATGCTTTTTC	3460
TGAAGCCGGAAGAAAGTTCTGGGACTTCCCCTTCTC	1710
CTCAGAGACCGGTTCCGGCCAGGAACGGGAAGTGCC	1740
ACTCCACTTCCCAGAATTCCTAAGCGGAAGCGTCTC	1160
